Read counts are not given, so values of variants with three or more changes are uncertain.
B1: LINE1-full (parent)
chain: UACGUAGGUGGUUUUCCCCUGAUAGUGCUAAGGGGGCCUGGAAGUUUGGACUGGGCAGAGCUCAACACAGCGUGGCAAAGUGGCUGUGGCUAGACUGCCUCUCUGGAUUCCUCGUCACUCAGCAGGGCAUCUCUGAGAGAAAUGCC

Variants of: B1
Assay: self-cleavage, relative activity (ratio to wild type); higher = more cleavage; in vitro, sequencing; the parent is a self-cleaving ribozyme

Variant	self-cleavage
UACGUAGGUGGUUUUCCCCUGAUAGUGCUAAGGGGGCCUGGAAGUUUGGACAGGGCAGAGCCCAACUCAGCGUGGCAAAGUGGCUGUGGCUAGACUGCCUCUCUGGAUUCCUCGUCACUCAGCAGGGCAUCUCUGAGAGAAAUGCC	0.16
UACGUAGGUGGUCUUCCCCUGACAGUGCUAAGGGGGCCUGGAAGUUUGGACUGGGCAGAGCUCAACACAGCGUGGCAAAGUGGCUGUGGCUAGACUGCCUCUCUGGAUUCAUCGUCACUCAGCAGGGCAUCUCUGAGAGAAAUGCC	1.57
UACGUAGGUGGUUUUCCCCUGAUAGUGCUAAGGGGGCCAGGAAGUUUGGACUGGGCAGAGCUCAACACAGCGUGGCAAAGUGGCUGAGGCUAGACUGCCUCUCAGGAUUCCUCGUCACUCAGCAGGGCAUCUCUGAGAGAAACGCC	0.05
UACGUAGGUGGUUUUCCCCUGAUAGCGCUAAGGGGGCCUGGAAGUUUGGACUGGGCAGAGCUCAACACAGCGUGGCAAAGUGGCUGUGGCUAGACUGCCUCUCAGGAUUCCUCGUCACUCAGCAGGGCACCUCUGAGAGAAAUGCC	1.46
UACGUAGGUGGUUUUCCCCUGAUAGUGCUAAGGGGGCCUGGAAGUUUGGACUGGGCAGAGCUCAACACAGCGUGGCAGAGUGGCUGUGGCUAGACUGCCUCUCUGGAUUCCCCGUCACUCAGCAAGGCAUCUCUGAGAGAAAUGCC	1.55
UACGUAGGUGGUUUUCCCCUGAUAGCGCUAAGGGGGCCUGGAAGUUUGGACUGGGCAGAGCUCGACACAGCGUGGCAAAGUGGCUGUGGCUAGACUGCCUCUCUGGAUUCCUCGUCACUCAGCAGGGCUUCUCUGAGAGAAAUGCC	0.36
UACGUAGGUGGUUUUCCCCUGAUAGUGCUAAGGGGGCCUGGAAGUUUGGACUGGGCAGAGCUCAACAUAGCGUGGCAAUGUGGCUGUGGCUAGACUGCCUCUCUGGAUUCCUCGUCGCUCAGCAGGGCAUCUCUGAGAGGAAUGCC	0.11
UACGUAGGUGGUUCUCCCCUGAUAGUGCUAAGGGGGCCUGGAAGUUUGGACUGGGCAGAGCUCAACACAGCGAGGCAAAGUGGCUGUGGCUAGACUGCCUCUCUGGAUUCCUCGUCACUCAGCAGGGCAUCUCUGAGAGGAAUGCC	1.82
UACGUAGGUGGUUUUCCCCUGAUAGUGCUAAGGGGGCCAGGAAGUUUGGACUGGGCAGAGCUCAACACAGCAUGGCAAAGUGGCUGCGGCUAGACUGCCUCUCUGGAUUCCUCGCCACUCAGCAGGGCAUCUCUGAGAGAAAAGCC	0.28
UACGUAGGCGGUAUUCCCCUGAUAGUGCUAAGGGGGCCUGGAAGUUUGGACUGGGCAGAGCUCAACACAGCGUGGCAGAGUGGCUGUGGCUAGACUGCCUCUCUGGAUUCCUCGUCACUCAGCAGGGCAUCUCUGAGAGAAAUGCC	0.71
UACGUAGGUGGUUUUCCCCUGAUAGUGCUAAGGGGGCCUGGAAGUUUGGGCUGGGCAGAGCUCAACACAGCGUGGCAAAGUGGCUGUGGCUAGACUGCCUCUCCUGAUUCCUCGUCACUCAGCAGGGCAUCUCCGAGAGAAAUGCC	1.6
UAUGUAGGUGGUUUUCCCCUGACAGUGCUAAGGGGGCCUGGAAGUUUGGACUGGGCAGAGCUCAACACAGCGUGGCAAAGUGGCUGCGGCUAGACUGCCUCUCUGGAUUCCUCGUCACUCAGCAGGGCAUCUCUGAGAGAAAUGCC	0
UACGUAGGUGGUUUUCCCCUGAUAGUGCUAAGGGGGCCUGGAAGUUUGGACUGGGCAGAGCUCAACACAGCGAGGCAAAGUGGCUGCGGCUAGACAGCCUCUCUGAAUUCCUCGUCACUCAGCAGGGCAUCUCUGAGAGUAAUGCC	0.03
UACGUAGGUGGUUUUCCCCUGAUGGUGCUAAGGGGGCCUGGAAGUUUGGACUGGACAGAGCUCAACACAGCGUGGCAAAGCGGCUGUGGCUAGACUGCCUCUCUGGAUUCCUCGUCACUCAGCAGGGCAUCUCUGAGAGAAAUGCC	0.64
UACGUAGGUGGUUUUCCCCUGAUAGUGCUAAGGGGGCCUGGAGGUUUGGACUGGGCGGGGCUCAACACAGCGUGGCAAAGUGGCUGUGGCUAGACUGCCUCUCUGGAUUCCUCGUCACUCAGCAGGGCAUCUCUGAGAGAAAUGCC	0.11
UACGUAGGUGGUCUUCCCCUGAUAGUGCUAAGGGGGCCCGGAAGCUUGGACUGGGCAGAGCUCAACACAGCGUGGCAAAGUGGCUGUGGCUAGACUGCUUCUCUGGAUUCCUCGUCACUCAGCAGGGCAUCUCUGAGAGAAAUGCC	0.33
UACGCAGGUGGUUUUCCCCUGAUAGUGCUAAGGGGGCCUGGAAGUUAGGACUGGGCAGAGCUCAACACAGCGUGGCAAAGUGGCUGUGGCUAGACUGCCUCUCUGGAUUCCUCGUCACUCAGCAGGGCAUCUCUGGGAGAAACGCC	1.04
UACGUAGGUGGUUAUCCCCUGAUAGUGCUAAGGGGGCCUGGAAGUUUGGACUGGGCAGAGCUCAACACAGCGCGGCAAAGUGGCCGUGGCUAGACUGCCUCUCUGGAUUCCUCGUCACUCAGCAGGGCAUCUCUGAGAGAAAUGCC	0
UACGUAGGUGGUUUUCCCCUGAUAGUGCUAAGGGGGCCUGGAAGUUUGGACUGGGCAGAGCACAACGCAGCGUGGCAAAGUGGUUGUGGCUAGACUGCCUCUCUGGGUUCCUCGUCACUCAGCAGGGCAUCUCUGAGAGAAAUGCC	0.15
UACGUAGGUGGUUUUCCCCUGCUAGUGCUAAGGGGGCCUGGAAGUUUGGACUGGGCAGAGCUCAACACAGCGUGGCAAAGUGGCUGUGGCUAGACUGCCUCUCUGGAUUCCCCGUCACUCAGCAGGGCAUCCCUGAGAGAAAUGCC	1.31

Variant	self-cleavage
UACGUAGGCGGUUUUCCCCUGAUAGUGCUGAGGGGGCCUGGAAGUUUGGACUGGGCAGAGCUCAACACAGCGUGGCAAAGUGGCUGUGGCUAGACCGCCUCUCUGGAUUCCUCGUCACUCAGCAGGGCAUCUCUGAGAGAAAUGCC	0.57
UACGUAGGUGGUCUUCCCCUGAUAGUGGUAAAGGGGCCUGGGAGUUUGGACUGGGCAGAGCUCAACACAGCGUGGCAAAGUGGCUGUGGCUAGACUGCCUCUCUGGAUUCCUCGUCACUCAGCAGGGCAUCUCUGAGAGAAAUGCC	0.92
UACGUAGGUGGUUUUCCCCUGAUAGUGCUAAGGGGGCCUGGAAGCUUGGACUGGGCAGAGCUCAACACAGCGUGGCAAAGCGGCUGUGGCUAGACUGCCUCUCUGGAUUCCUCGUCACUCACCAGGGGAUCUCUGAGAGAAAUGCC	0.98
UACGUAGGUGGUUUUCCCCUGAUAGCGCUAAGGGGGCCUGGGAGUUUGGACUGGGCAGAGCUCAACACAGCGUGGCAAAGUGGCUGUGGCUAGACUGCCUCUCUGGAUUCCUCGUCACUCAGCAGGGCAUCUCUGAGAGGAAUGCC	1.41
UACGUAGGUGGUUCUCCCCUGAUAGUGGUAAGGGGGCCUGGAAGUUUGGACUGGGCAGAGCUCAACACAGCGUGGCAAAGUGGCUGUGGCUAGACUGCCUCUCUGGAUUCCUCGUCACUCAGCAGGGCAUCUCUGAGAGAAGUGCC	0.59
UACGUAGGUGGGUUUCCCCUGAUAGCGCUAAGGGGGCCUGGAAGUUUGGACUGGGCAGAGCUCAACACAGCGUGGCAAAGUGGCUGUGGCUAGACUGCCUCUCUGGAUUCCUCGUCACCCAGCAGGGCAUCUCUGAGAGAAAUGCC	0.61
UACGUAGGUGGUUUUCCCCUGAUAGGGCUAAGGGGGCCUGGAAGUUUGGACUGGGCAGAGCUCAACACAGCGUGGCAAAGUGGCUGUGGCUGGACUGCCUCUCUGGAUUCCUUGCCACUCAGCAGGGCAUCUCUGAGAGAAAUGCC	0.19
UACGUAGGUGGUUGCCCCCUGAUAGUGCUAAGGGGGCCUGGAAGUUUGGACUGGGCGGAGCUCAACACAGCGUGGCAAAGUGGCUGUGGCUAGACAGCCUCUCUGGAUUCCUCGUCACUCAGCAGGGCAUCUCUGAGAGAAAUGCC	0
UACGUAGGUGGUUUUCCCCCGAUAGUGCUAAGGGGGCCUGGGAGUAUGGACUGGGCAGAGCUCAACACAGCGUGGCAAAGUGGCUGUGGCUAGACUGCCUCUCUGGAUUCCUCGUCACUCAGCGGGGCAUCUCUGAGAGAAAUGCC	1.84
CACGUUGGUGGUUUUCCCCUGAUAGUGCUAAGGGGGCCUGGAAGUUUGGACUGGGCAGAGCUCAACACAGCGUGGCAAAGUGGCUGUGGCUGGACUGCCUCUCUGGAUUCCUCGUCACUCAGCAGGGCAUCUCUGAGAGAAAUGCC	0.1
UACGUAGGUGGUUUUCCCCUGAUAGCGCUAAGGGGGCCUGGAAGUUUGGACUGGGCAGAGCUCAACACAGCGUGGCAAAGUGGCUGUGGCUAGACUGCCUCUCUGGAUUCCCCGUCACUCAGCGGGGCUUCUCUGAGAGAAAUGCC	2.55
UACGUAGGUGGUUUUCCCCUGGUAGUGCUAAGGGGGCCUGGAAGUUUGGACUGGGCAGAGCUCAACACAGCGUGGCAAAGUGGCUGUGGCUAGACUGCCUCUCUGGAUCCCUCGUCACUCAGCAGGGCAUCCCUGAGGGAAAUGCC	1.75
UACGUAGGUGGUUUUCCCCUGAUAGUGCUAAGGGGGCCUGGAAGUUUGGACUGGGCAGAGCUCACCACAGCGAGGCAAAGUGGCUGUGGCUAGACUGCCUCUCUGGAUUCCUCGUCACUCAGCAGGGCAUCUCUGAGAGGAAUGCC	0.02
UACGUAGGCGGUUUUCCCCUGAUAGUGCUAAGGGGGCCUGGAAGUUUGGACUGGGCAGAACCCAACACAGCGUGGCAAAGUGGCUGUGGCUAGACUGCCUCUCUGGAUUCCUCGACACUCAGCAGGGCAUCUCUGAGAGAAAUGCC	0.04
UACGUAGGUGGUUUUCCCCUGGUAGUGCUAAGGGGGCCUGGAAGUUUGGACUGGGCAGAGCUCAGCACAGCGUGGCAAAGUGGCUGUGGCUAGACUGCCUCUCUGGAUUCCUCGUCACACAGCAGGGCAUCUCUGAGAGAAAUGCC	0.2
UACGUAGGUGGUUCUCCCCUGACAGUGCCAAGGGGGCCUGGAAGUUUGGACUGGGCAGAGCUCAACACAGCGUGGCAAAGUGGCUGUGGCUAGACAGCCUCUCUGGAUUCCUCGUCACACAGCAGGGCAUUUCUGAGAGAAAUGCC	0
UACGUAGGUGGUUUUCCCCUGAUAGUGCUAAGGGGGCCUGGAAGUUUGGACUGGGCAGAGCUUAACACAGCGUGGCAAAGUGGCUGUGGCUAGGCUGCCCCUCUGGAUUCCUCGUCACUCAGCAGGGCAUCUCUGAGAGGAAUGCC	0.03
UACGUAGGUGGUUUUCCCCUGAUAGUGCUAAGGGGGCCUGGAAGUUUGGACUGGGCAGAGCCCAACACAGCGUGGCAGAGUGGCUGUGGCUAGACUGCCCCUCUGGAUUCCUCGUCACUCCGCAGGGCAUCUCUGAGAGAAAUGCC	0
UACGUAGGUGGUUUUCCCCUGAUAGUGCUAAGGGGGCCAGGAAGUUUGGACUGGGCAGAGCUCAACACAGCGUGGCAAAGUGGCUGUGGCUAGACUGCCUCUCUGGUUUCCCCGUCACUCAGCAGGGCAUCUCUGAGAGAAAUGCC	1.68
